Paper PMC4336329 (PLoS ONE, 2015)
In all, about 310,000 compounds went through this assay and about 2,200 (0.71%) showed an effect of 50% or more. The effect is printed as a negative number. Some of the results follow.

biological target: human ether-à-go-go-related gene (hERG) potassium channel (human, UniProt Q12809); assay: primary screen, population patch clamp on CHO cells stably expressing hERG
Sequence (Q12809 whole entry, looked up): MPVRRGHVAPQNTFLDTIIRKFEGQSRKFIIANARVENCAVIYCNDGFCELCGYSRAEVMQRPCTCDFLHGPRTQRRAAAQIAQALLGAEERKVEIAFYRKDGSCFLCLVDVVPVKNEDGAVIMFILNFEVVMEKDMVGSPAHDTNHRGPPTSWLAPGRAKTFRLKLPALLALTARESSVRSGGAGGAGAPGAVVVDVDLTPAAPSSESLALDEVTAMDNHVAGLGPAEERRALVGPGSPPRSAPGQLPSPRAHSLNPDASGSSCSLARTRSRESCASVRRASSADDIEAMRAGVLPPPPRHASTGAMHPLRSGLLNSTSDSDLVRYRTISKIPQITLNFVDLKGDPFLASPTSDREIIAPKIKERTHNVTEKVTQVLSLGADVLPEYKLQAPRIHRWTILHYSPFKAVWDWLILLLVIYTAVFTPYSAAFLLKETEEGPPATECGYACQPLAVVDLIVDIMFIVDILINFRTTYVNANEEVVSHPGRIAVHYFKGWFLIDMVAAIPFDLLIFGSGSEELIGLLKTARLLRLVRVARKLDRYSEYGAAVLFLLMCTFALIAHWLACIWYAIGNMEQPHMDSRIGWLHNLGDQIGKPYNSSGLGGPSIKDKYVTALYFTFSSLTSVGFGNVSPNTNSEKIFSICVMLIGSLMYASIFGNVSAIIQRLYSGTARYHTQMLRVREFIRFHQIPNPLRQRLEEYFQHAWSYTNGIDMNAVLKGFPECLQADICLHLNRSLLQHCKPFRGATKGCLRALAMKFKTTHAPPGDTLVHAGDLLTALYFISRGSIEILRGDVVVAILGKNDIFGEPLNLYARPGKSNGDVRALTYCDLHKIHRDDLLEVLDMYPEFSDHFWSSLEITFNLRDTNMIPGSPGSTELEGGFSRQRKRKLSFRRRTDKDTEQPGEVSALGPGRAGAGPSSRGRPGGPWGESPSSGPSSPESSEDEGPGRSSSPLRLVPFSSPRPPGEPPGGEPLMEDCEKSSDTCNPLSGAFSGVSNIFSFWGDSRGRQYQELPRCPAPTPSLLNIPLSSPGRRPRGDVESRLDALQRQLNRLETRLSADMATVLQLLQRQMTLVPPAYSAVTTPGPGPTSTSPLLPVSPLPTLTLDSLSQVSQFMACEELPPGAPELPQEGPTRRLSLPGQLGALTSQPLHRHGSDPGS

Row | SMILES | hERG current change (%, negative = inhibition) at 1uM
1 | O=C(CN1CCN(c2ccc(F)cc2)CC1)Nc1ccc(F)c(F)c1 | 6.62%
2 | CCOc1ccc(CN(C)C(=O)CNC(=O)c2sc3ccccc3c2Cl)cc1 | 4.08%
3 | NC(=O)c1cc(-c2ccccc2)nc(Oc2ccccc2)n1 | 10.5%
4 | C=CCn1c(SCc2ccc([N+](=O)[O-])cc2)nnc1C(C)NC(=O)c1ccccc1 (stereo not shown) | -43.4%
5 | CCOC(=O)CSc1nc2c(c(=O)n(C)c(=O)n2C)n1Cc1ccccc1F | -5.45%
6 | CCn1c(CNC(=O)c2cccc(C)c2)nnc1SCC(=O)NC1CCCC1 | 7.81%
7 | CC(C)c1nc2oc3c(N(C)CCO)ncnc3c2c2c1CCC2 | -15%
8 | CC1(C)CC2CC(C)(CN2C(=O)c2cc(-c3ccc(O)cc3)on2)C1 (stereo not shown) | 4.53%
9 | Fc1cc(F)c2nc(Nc3nc4cc5c(cc4s3)OCO5)sc2c1 | 14.2%
10 | Oc1ccc(/C=C/c2ccc3cccc(O)c3n2)cc1Br | 7.42%
11 | Cc1c(Cl)cccc1NS(=O)(=O)c1cccc2nsnc12 | 6.9%
12 | Clc1cccc(NCc2nnc(SCc3ccccc3Cl)o2)c1 | 8.28%
13 | CCN(CC(=O)Nc1ccccc1C(F)(F)F)C(=O)C1CCN(C(=O)Nc2ccccc2)CC1 | 9.8%
14 | Cc1ccc(SCC(=O)Nc2nccs2)cc1 | -6.15%
15 | CNc1nc(C)cc(C)c1S(=O)(=O)c1ccc(C)cc1 | 9.33%
16 | CCOc1ccc(NC(=O)COC(=O)C2(C)CC2(Cl)Cl)c([N+](=O)[O-])c1 (stereo not shown) | 5.04%
17 | CC(C)C(=O)Nc1ccc(C(=O)NCc2cccnc2)cc1 | 10.3%
18 | O=C(N/N=C/c1ccc(O)cc1)c1ccc(NC(=O)c2ccccc2Br)cc1 | 4.68%
19 | O=C(c1cc2ccccc2o1)N1CCN(S(=O)(=O)c2ccc(F)c(F)c2F)CC1 | 5.61%
20 | c1ccc2c(N3CCCC3)nc(-c3ccncc3)nc2c1 | 1.09%
21 | CC1(C)Cc2c(c(N3CCOCC3)nc3sc4c(NCCN5CCOCC5)nnnc4c23)CS1 | 12.8%
22 | O=C(N/N=C/c1c[nH]c2ccccc12)c1ccn(Cc2ccc(Cl)cc2Cl)n1 | 13.7%

Row | SMILES | hERG current change (%, negative = inhibition) at 1uM
23 | Cc1ccc(C(=O)NCC(=O)OC(C)C(=O)Nc2ccc(N(C)C)cc2)cc1C (stereo not shown) | -2.2%
24 | O=c1c(Cl)c(NCc2ccc(F)cc2Cl)cnn1C12CC3CC(CC(C3)C1)C2 | 21.3%
25 | Cc1ccccc1C(=O)N1CCC(C(=O)Nc2cccc(F)c2)CC1 | 2.79%
26 | CC(C)[C@H](CO)N(Cc1cccc(F)c1)c1nc(Nc2cccc(Cl)c2)c2ncn(C(C)C)c2n1 | 6.75%
27 | COCCNC(=O)CN(C(=O)c1ccc(N2CCCC2)nc1)c1ccc(F)c(Cl)c1 | 11.2%
28 | Cc1cc(C(=O)CN2C(=O)NC3(CCCCC3)C2=O)c(C)n1-c1ccc2c(c1)OCO2 | 5.94%
29 | CC1(C)Cc2c(C#N)c(SCC(=O)c3ccccc3)nc(N3CCOCC3)c2CO1 | 7.44%
30 | N#Cc1nc(NCC(F)F)nc(Nc2cc(F)cc(F)c2)n1 | 3.23%
31 | COc1ccc(/C=N/n2c(SC)nnc2-c2ccccc2)cc1C | 7.63%
32 | Cc1cc(=O)n2[nH]c(SCc3ccc(Cl)cc3)nc2n1 | -0.335%
33 | Cc1cccc(C)c1OC(=O)CN(c1ccc(Cl)cc1)S(C)(=O)=O | 14.2%
34 | COc1cc(NC(=O)CN2CCCCC2)c(C)cc1[N+](=O)[O-] | 5.81%
35 | O=C(c1ccc(Cl)cc1)N1CCC2(CC1)OCCO2 | 15.6%
36 | Cc1ccc(NC(=O)CCC(=O)NNC(=O)NC23CC4CC(CC(C4)C2)C3)cc1C | 2.58%
37 | CNC(=O)CCN(Cc1ccco1)S(=O)(=O)c1ccc(OC)c(OC)c1 | 10.2%
38 | CCOC(=O)N1CCc2c(sc(NC(=O)c3ccc(Cl)s3)c2C(N)=O)C1 | 10.2%
39 | Cc1ccc(-c2nc3cccnc3s2)cc1NS(=O)(=O)c1ccc2c(c1)OCCO2 | 1.63%
40 | C(#Cc1ccccc1)C[N+]1(CC#Cc2ccccc2)CCCCC1.[Br-] | -15.7%
41 | N#Cc1c(NCCO)ccc([N+](=O)[O-])c1NCCO | 7.61%
42 | CC(C)[C@H](NC(=O)OCc1ccccc1)C(=O)OCc1cc(=O)oc2cc(O)ccc12 | 0.75%
43 | Cc1ccc(NC(=O)C2CCN(S(=O)(=O)c3c(C)noc3/C=C/c3ccco3)CC2)nc1 | 4.88%
44 | COc1ccc(Cn2c(-c3ccc(OC)c(O)c3)nc3ccccc32)cc1O | 6.77%

Row | SMILES | hERG current change (%, negative = inhibition) at 1uM
45 | CNc1oc(Cc2ccccc2)nc1S(=O)(=O)c1ccccc1 | 5.78%
46 | COc1cc(/C=N/NC(=O)c2ccc3ccccc3c2)ccc1Oc1ccc([N+](=O)[O-])cn1 | -0.87%
47 | Cc1cccc(C(P(=O)(c2ccccc2)c2ccccc2)P(=O)(c2ccccc2)c2ccccc2)n1 | 8.36%
48 | Nc1c(Cl)c(Cl)nc(C(=O)OCC(=O)NC2CCCCC2)c1Cl | -17.1%
49 | C[N+]1(CCOc2ccc([N+](=O)[O-])cc2)CCOCC1.[I-] | 2.61%
50 | Brc1ccccc1OCCCN1CCCC1.O=C(O)C(=O)O | 8.64%
51 | O=C(Nc1ccc2ccccc2n1)Nc1cccs1 | 10.6%
52 | Cc1ccnc(NC(=O)CCCOc2ccccc2)c1 | 13.4%
53 | CCOc1ccc(C2C(C(=O)c3ccco3)=C(O)C(=O)N2CCN2CCOCC2)cc1 (stereo not shown) | 13.2%
54 | COc1ccc(/C=C/C(=O)NCc2cn(C)nc2C)cc1COc1ccc(Br)cc1 | 13%
55 | COc1ccc(C/C(O)=C(\C#N)c2nc3ccccc3s2)cc1 | 17.2%
56 | CSCC[C@H](NC(=O)OC(C)(C)C)C(=O)NCC1CCC(C(=O)N[C@@H](Cc2ccccc2)C(=O)O)CC1 (stereo partly shown) | 7.43%
57 | C[C@@H]1CCC(=O)N(CC[C@H](Sc2ccccc2)c2ccccc2)CC1 | 16.3%
58 | O=C(NCc1ccccn1)C1CCN(Cc2cnn(-c3ccccc3)c2-n2cccc2)CC1 | -3.33%
59 | CCOc1ccc(Br)cc1C1C(C(=O)OC)=C(N)Oc2cc(N(C)C)ccc21 (stereo not shown) | 16.6%
60 | CCCn1nc2cc(C(=O)NCCc3cccs3)ccc2c1OCC | 7.59%
61 | O=C(NC1CCCCC1)C(c1ccc(Cl)cc1)N(C(=O)c1cnccn1)c1ccc2c(c1)OCO2 (stereo not shown) | 4.36%
62 | CCCCNC(=O)c1ccc(CS(=O)(=O)c2ccc(C)cc2)o1 | 16.9%
63 | Cc1ccc(C(=O)N2c3ccccc3CC2C)o1 (stereo not shown) | 25.4%
64 | COc1ccc(Cl)cc1C(=O)NC(=S)Nc1ccccc1N1CCOCC1 | 9.75%
65 | CN(Cc1ccccc1)C(=O)Nc1ccccc1 | 8.6%
66 | O=C(Nc1cccc([N+](=O)[O-])c1)c1cc(S(=O)(=O)N2CCOCC2)cs1 | 17.2%

Row | SMILES | hERG current change (%, negative = inhibition) at 1uM
67 | COc1ccc(-c2noc(=O)[nH]2)cc1 | 5.43%
68 | COc1cc(OC)cc(C(=O)NCc2ccc3c(c2)OCO3)c1 | 10.2%
69 | CCCCn1c(=NC(C)=O)c(C#N)cc2c(=O)n3cccc(C)c3nc21 | -14%
70 | CCOc1ccc(Nc2nc3cc(S(=O)(=O)N(CC)CC)ccc3o2)cc1 | 3.11%
71 | C=C(C)[C@@H]1CC=C(CN2CCC(N3CCC(C(=O)N4CCCC4)CC3)CC2)CC1 | -24.6%
72 | COc1cc([C@@H]2c3cc4c(cc3[C@@H](O)[C@H]3COC(=O)[C@H]23)OCO4)cc(OC)c1O[Si](C)(C)C(C)(C)C | 13.7%
73 | Cc1cc2sc3ccccc3c(=O)c2c(C)c1O | 11.7%
74 | O=C(CSCc1cc(=O)n2nc(C3CC3)sc2n1)Nc1ccc(F)cc1 | 16%
75 | CCc1ccc(/C=N/n2c(C3CCCCC3)n[nH]c2=S)cc1 | 16.2%
76 | O=C1CN(/N=C/c2ccc([N+](=O)[O-])o2)C(=O)N1 | 15.3%
77 | COc1ccc([C@@H](C)NC(=O)CCc2nnc(-c3cc(C)on3)o2)cc1 | 3%
78 | Cc1cccc(N(C)C(=O)CN(C)S(=O)(=O)c2ccc3c(c2)c(=O)n(C)c(=O)n3C)c1 | 8.94%
79 | CCC(C)Sc1nnc(CSc2nc3nc(C)cc(C)n3n2)o1 (stereo not shown) | 10.4%
80 | O=C(Nc1ccccc1)c1nn(-c2ccccc2)c(=O)cc1C(F)(F)F | 15.1%
81 | Cc1sc(NC(=O)C2C3CCC(C3)C2C(=O)O)c(C(N)=O)c1-c1ccc(C(C)(C)C)cc1 (stereo not shown) | 4.31%
82 | Cn1c(/C(C#N)=C(\O)c2ccc(Cl)s2)nc2ccccc21 | 10.3%
83 | CN(C)C(CNC(=S)Nc1ccc(Cl)cc1)c1cccnc1 (stereo not shown) | -2.39%
84 | COc1ccc(C2C=C(c3ccc(Br)cc3)Nc3nc(NS(C)(=O)=O)nn32)cc1 (stereo not shown) | 11.5%
85 | COc1cc(CNn2nnnc2N)cc(Br)c1OCC(=O)NC(C)(C)C | 0.783%
